The source of these data is patent US20230174604A1 (Innovent, published 2023).

T1: IL-2Rα (CD25) on primary human CD8+ CD25+ T cells (human, UniProt P01589 22-272)
T1 sequence (looked up): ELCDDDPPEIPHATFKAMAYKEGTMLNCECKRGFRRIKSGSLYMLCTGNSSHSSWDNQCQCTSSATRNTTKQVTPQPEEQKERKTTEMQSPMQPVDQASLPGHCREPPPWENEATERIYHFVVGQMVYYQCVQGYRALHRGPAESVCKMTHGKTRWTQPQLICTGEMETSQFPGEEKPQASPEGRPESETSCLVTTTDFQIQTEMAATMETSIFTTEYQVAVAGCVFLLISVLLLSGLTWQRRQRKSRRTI

T2: IL-2Rα-Biotin (biotin-labeled human IL-2Rα, UniProt P01589 aa22-217, with C-terminal avi tag and His6 tag) (human, UniProt P01589 22-217, biotin on the avi tag (enzymatic labeling with BirA))
T2 construct: Expressed in HEK293-F, monomer peak collected; loaded on SA sensor or used to stain yeast; also called CD25; IL-2Rα receptor
T2 sequence: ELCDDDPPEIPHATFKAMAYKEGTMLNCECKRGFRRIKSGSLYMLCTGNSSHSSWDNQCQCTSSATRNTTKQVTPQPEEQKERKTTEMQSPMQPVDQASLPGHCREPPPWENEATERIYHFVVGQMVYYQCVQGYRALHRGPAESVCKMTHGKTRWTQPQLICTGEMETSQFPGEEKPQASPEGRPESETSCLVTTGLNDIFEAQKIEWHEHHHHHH

T3: IL-2Rβ IH-Biotin (biotin-labeled human IL-2Rβ, UniProt P14784 aa27-240, with C-terminal avi tag and His6 tag) (human, UniProt P14784 27-240, biotin on the avi tag (enzymatic labeling with BirA))
T3 construct: In-house protein, distinct from the Acro Biosystems IL-2Rβ-Biotin used only for library sorting; also called IL-2Rβ receptor
T3 sequence: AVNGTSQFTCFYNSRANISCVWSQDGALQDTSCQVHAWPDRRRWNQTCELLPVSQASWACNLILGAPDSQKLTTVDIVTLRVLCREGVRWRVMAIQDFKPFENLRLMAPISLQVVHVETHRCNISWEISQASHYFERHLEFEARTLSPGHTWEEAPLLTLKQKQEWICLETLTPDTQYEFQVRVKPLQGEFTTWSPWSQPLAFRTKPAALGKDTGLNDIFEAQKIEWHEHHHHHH

B1: IL-2^WT-FC fusion protein (IL-2^WT-2*(G4S)-FcLALA) (Fc fusion)
chain: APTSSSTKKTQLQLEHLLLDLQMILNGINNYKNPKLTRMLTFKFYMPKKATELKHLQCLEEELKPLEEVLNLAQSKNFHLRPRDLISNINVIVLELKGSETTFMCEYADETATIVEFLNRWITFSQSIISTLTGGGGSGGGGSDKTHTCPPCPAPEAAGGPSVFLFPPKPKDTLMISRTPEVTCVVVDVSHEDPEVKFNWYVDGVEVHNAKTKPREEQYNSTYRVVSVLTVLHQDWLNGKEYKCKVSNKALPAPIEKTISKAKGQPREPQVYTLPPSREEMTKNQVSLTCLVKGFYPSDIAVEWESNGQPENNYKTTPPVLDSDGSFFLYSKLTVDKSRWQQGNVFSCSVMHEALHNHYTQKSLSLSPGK
notes: also called Y045
B2: IL-2 mutant Y30E1 (K35E, T37E, R38E, F42A)-FC fusion protein (Fc fusion)
chain: APTSSSTKKTQLQLEHLLLDLQMILNGINNYKNPELEEMLTAKFYMPKKATELKHLQCLEEELKPLEEVLNLAQSKNFHLRPRDLISNINVIVLELKGSETTFMCEYADETATIVEFLNRWITFSQSIISTLTGGGGSGGGGS[here human IgG1 Fc with changes without letters]
B3: Y093 (IL-2^.Y30E1.truncate1.K76A-2*(G4S)-FcLALA) (Fc fusion)
chain: APTSSSTKKTQLQLEHLLLDLQMILNGINNYKNPELEEMLTAKFYMPKKATELKHLQCLEEELKPLEEVLNLAQSANFHDLISNINVIVLELKGSETTFMCEYADETATIVEFLNRWITFSQSIISTLTGGGGSGGGGS[here human IgG1 Fc with changes without letters]
B4: Y089 (IL-2^.Y30E1.truncate1-2*(G4S)-FcLALA) (Fc fusion)
chain: APTSSSTKKTQLQLEHLLLDLQMILNGINNYKNPELEEMLTAKFYMPKKATELKHLQCLEEELKPLEEVLNLAQSKNFHDLISNINVIVLELKGSETTFMCEYADETATIVEFLNRWITFSQSIISTLTGGGGSGGGGS[here human IgG1 Fc with changes without letters]
B5: Y094 (IL-2^.Y30E1.truncate1.K76D-2*(G4S)-FcLALA) (Fc fusion)
chain: APTSSSTKKTQLQLEHLLLDLQMILNGINNYKNPELEEMLTAKFYMPKKATELKHLQCLEEELKPLEEVLNLAQSDNFHDLISNINVIVLELKGSETTFMCEYADETATIVEFLNRWITFSQSIISTLTGGGGSGGGGS[here human IgG1 Fc with changes without letters]
notes: also called IL-2^.Y30E1.truncate1.K67D-2*(G4S)-FcLALA
B6: Y092 (IL-2^.Y30E1.15BCL-2*(G4S)-FcLALA) (Fc fusion)
chain: APTSSSTKKTQLQLEHLLLDLQMILNGINNYKNPELEEMLTAKFYMPKKATELKHLQCLEEELKPLEEVLNLAGDASIHDLISNINVIVLELKGSETTFMCEYADETATIVEFLNRWITFSQSIISTLTGGGGSGGGGS[here human IgG1 Fc with changes without letters]
B7: IL-2^3X-FC fusion protein (IL-2^.3X-2*(G4S)-FcLALA) (Fc fusion)
chain: APTSSSTKKTQLQLEHLLLDLQMILNGINNYKNPKLTDMLTFEFYMPKKATELKHLQCLERELKPLEEVLNLAQSKNFHLRPRDLISNINVIVLELKGSETTFMCEYADETATIVEFLNRWITFSQSIISTLTGGGGSGGGGS[here human IgG1 Fc with changes without letters]
notes: also called Y040
B8: Y144 (IL-2^.Y30E1.15BCL.T3A-2*(G4S)-FcLALA) (Fc fusion)
chain: APASSSTKKTQLQLEHLLLDLQMILNGINNYKNPELEEMLTAKFYMPKKATELKHLQCLEEELKPLEEVLNLAGDASIHDLISNINVIVLELKGSETTFMCEYADETATIVEFLNRWITFSQSIISTLTGGGGSGGGGS[here human IgG1 Fc with changes without letters]

The target in the first assay is T1, IL-2Rα (CD25) on primary human CD8+ …. As to the kind of experiment: cell-based or functional assay.
Consider B1, for which the “Ratio of CD25^- EC50/CD25^+ EC50” value amounted to 1980 ratio.
The same measure, in the same setting: with B2 the figure was 1.72 ratio.
On the same count and under the same terms, the same measure for B3: 2.79 ratio; for B4: 5.94 ratio; for B5: 2.89 ratio.
On to B6, for which the “Ratio of CD25^- EC50/CD25^+ EC50” value was 1.78 ratio.

The next assay deals with T2, IL-2Rα-Biotin (biotin-labeled human …). Nature of the assay: ForteBio BLI, biotinylated receptor on SA sensor. (In general: In BLI a coated tip is dipped into the sample, and binding shifts an interference pattern.)
Regarding B7, the binding result is “no binding (tested: 100 nM IL-2-FC)”.
The same measure, in the same setting: with B2 the entry was “no binding (tested: 100 nM IL-2-FC)”.

Another assay concerns the target T3, IL-2Rβ IH-Biotin (biotin-labeled human …). Nature of the assay: ForteBio BLI, biotinylated receptor on SA sensor, 100 nM IL-2-FC in solution, 1:1 model (avidity). On the procedure: (§1) The ForteBio affinity assay was conducted according to the method (Estep, P et al., High throughput solution Based measurement of antibody-antigen affinity and epitope binding. mAbs, 2013.5 (2): p. 270-8) known in the art. […] The kinetic analysis was performed using a 1:1 binding model.
(§2) In the assay described above, the affinity KD values of IL-2^mutant-FC fusion proteins expressed by HEK293-F cells for their receptors are shown in Table 3. As a control, the affinity KD values of the IL-2^WT-FC and IL-2^3X-FC fusion proteins measured using the same method are also shown in Table 3.
With B2, the Kd was determined as 5.9 nM.

The next assay has as its target T2, IL-2Rα-Biotin (biotin-labeled human …). The assay is described as above. Here is the method:
as §1, §2
B1 came in with a Kd of 10 nM.

The next assay shares this target. Nature of the assay: ForteBio BLI, biotinylated receptor on SA sensor. The source holds these as a separate data set. On the procedure: as §1
(§3) The following mutant proteins were subjected to affinity KD value determination according to the ForteBio affinity determination method described in Example 2.
With B3, the binding result is on record as “no binding (tested: 100 nM IL-2-FC)”.
On to B4, for which the binding result is “no binding (tested: 100 nM IL-2-FC)”.
On to B5, for which the binding result is “no binding (tested: 100 nM IL-2-FC)”.
For B6, the binding result is listed as “no binding (tested: 100 nM IL-2-FC)”.
Still for that read-out and setting: with B8 the entry was “no binding (tested: 100 nM IL-2-FC)”.

The target in a further assay is T3, IL-2Rβ IH-Biotin (biotin-labeled human …). As to the kind of experiment: ForteBio BLI, biotinylated receptor on SA sensor, 100 nM IL-2-FC in solution, 1:1 model (avidity). This is another data set of the same source. On the procedure: as §1, §3
B2 registered a Kd of 6.45 nM.
For B3, the Kd turned out to be 1.96 nM.
The same measure, in the same setting: the same measure for B4: 4.53 nM.
On the same count and under the same terms, the same measure for B5: 3.35 nM; for B6: 3.27 nM; for B8: 1.55 nM.
